In paper PMC7242078 one finds binding data, which are given here for 10 substances.

Protein sequences, listed by entry. Tags and fused reporters are not part of them.
UniProt Q7FRS8: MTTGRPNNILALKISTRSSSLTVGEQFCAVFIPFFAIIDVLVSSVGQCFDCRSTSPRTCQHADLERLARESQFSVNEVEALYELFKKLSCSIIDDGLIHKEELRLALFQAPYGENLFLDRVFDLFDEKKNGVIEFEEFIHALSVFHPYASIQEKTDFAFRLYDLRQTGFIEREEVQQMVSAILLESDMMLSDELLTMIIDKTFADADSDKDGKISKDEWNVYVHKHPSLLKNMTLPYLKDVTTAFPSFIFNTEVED
UniProt O81445: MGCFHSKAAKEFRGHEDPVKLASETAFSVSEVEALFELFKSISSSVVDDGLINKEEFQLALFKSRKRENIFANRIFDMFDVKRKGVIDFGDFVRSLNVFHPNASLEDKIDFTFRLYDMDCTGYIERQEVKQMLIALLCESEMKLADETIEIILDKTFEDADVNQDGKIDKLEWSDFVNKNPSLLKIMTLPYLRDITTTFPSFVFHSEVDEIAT
UniProt Q9LTB8: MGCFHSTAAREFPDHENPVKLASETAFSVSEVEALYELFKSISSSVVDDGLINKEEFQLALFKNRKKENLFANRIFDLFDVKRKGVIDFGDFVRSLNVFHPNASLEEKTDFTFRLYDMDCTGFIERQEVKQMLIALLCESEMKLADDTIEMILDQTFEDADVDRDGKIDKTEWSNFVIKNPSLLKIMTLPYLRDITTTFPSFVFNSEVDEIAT
UniProt Q9SUA6: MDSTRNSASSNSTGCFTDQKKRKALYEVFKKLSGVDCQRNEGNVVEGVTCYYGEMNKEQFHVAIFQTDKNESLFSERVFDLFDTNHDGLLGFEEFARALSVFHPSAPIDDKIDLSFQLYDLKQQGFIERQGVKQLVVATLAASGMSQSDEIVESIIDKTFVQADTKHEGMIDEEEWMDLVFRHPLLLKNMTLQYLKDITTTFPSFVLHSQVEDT
UniProt O81223: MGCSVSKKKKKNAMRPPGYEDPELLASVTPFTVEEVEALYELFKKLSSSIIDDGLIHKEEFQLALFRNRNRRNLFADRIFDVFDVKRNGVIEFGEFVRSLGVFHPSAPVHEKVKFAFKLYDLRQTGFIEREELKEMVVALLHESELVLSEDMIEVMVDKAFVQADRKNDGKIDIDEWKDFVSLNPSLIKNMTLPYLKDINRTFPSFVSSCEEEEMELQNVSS
UniProt Q9C5P6: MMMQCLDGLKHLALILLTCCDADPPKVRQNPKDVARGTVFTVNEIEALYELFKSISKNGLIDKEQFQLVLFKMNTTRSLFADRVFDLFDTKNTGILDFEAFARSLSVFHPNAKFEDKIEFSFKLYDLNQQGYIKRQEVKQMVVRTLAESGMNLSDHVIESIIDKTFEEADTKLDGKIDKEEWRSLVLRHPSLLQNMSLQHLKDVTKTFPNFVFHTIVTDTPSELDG

Test [1] concerns the target T1, CBL-interacting protein kinase 8 (pGBKT7-CIPK8) (Arabidopsis) (UniProt Q9STV4).
T1 sequence: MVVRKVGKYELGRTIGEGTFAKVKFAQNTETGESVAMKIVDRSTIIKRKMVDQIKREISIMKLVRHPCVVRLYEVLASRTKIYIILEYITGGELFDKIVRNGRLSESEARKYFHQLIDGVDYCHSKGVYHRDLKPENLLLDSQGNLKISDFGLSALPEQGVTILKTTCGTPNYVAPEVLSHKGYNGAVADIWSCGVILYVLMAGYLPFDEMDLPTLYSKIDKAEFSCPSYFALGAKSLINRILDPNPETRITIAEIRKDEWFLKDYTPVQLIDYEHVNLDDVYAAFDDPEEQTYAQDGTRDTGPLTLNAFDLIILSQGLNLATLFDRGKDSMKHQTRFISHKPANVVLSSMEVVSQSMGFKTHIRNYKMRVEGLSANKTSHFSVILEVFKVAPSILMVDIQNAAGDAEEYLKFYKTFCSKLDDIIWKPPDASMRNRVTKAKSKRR
Put plainly: two-hybrid; MatchMaker yeast two-hybrid system (Clontech), Y2HGold yeast co-transformed with pGBKT7-CIPK8 and pGADT7-CBLs; growth on QDO/X/A (lacking Leu, Ade, His and Trp, with 40 ug/ml X-alpha-Gal and 125 ng/ml aureobasidin A).

The target of test [2] is T2, CIPK8 luciferase-fragment fusion (pCAMBIA1300-cLUC, primers CIPK8-cLUC-F/R) (Arabidopsis) (UniProt Q9STV4).
T2 sequence: T1 sequence
The experiment in a line: split reporter; Split-LUC in tobacco leaf cells; data not shown.

For test [3], the target named is T2, CIPK8 luciferase-fragment fusion (pCAMBIA1300-cLUC, primers CIPK8-cLUC-F/R) (Arabidopsis). Put plainly: split reporter; Split-LUC (firefly luciferase complementation imaging) in Nicotiana benthamiana leaves, agroinfiltrated, imaged after 2 d, 10 min exposure; nLUC and cLUC fusions.

No constants are given. Whether binding was seen depends on the method and setting. For some of these results: Binding seen in cells or lysates may run through a third protein. Some binding calls cover weakened binding; strength is not graded here. For some of these results: Sequences can lack the tags named with a protein.

Regarding “Calcineurin B-like protein 10 (pGADT7-CBL10) (from UniProt Q7FRS8 1-256)”, the binding result in test [1] is reported as “binds”.

“CBL1 in the Split-LUC assay (from UniProt O81445 1-213)”: the binding entry in test [2] is given as “binds”.

With “Calcineurin B-like protein 9 (pGADT7-CBL9) (from UniProt Q9LTB8 1-213)”, in test [1], the binding result is listed as “no binding”.

On to “Calcineurin B-like protein 1 (pGADT7-CBL1) (from UniProt O81445 1-213)”, for which the binding result in test [1] is given as “binds”.

Consider “Calcineurin B-like protein 7 (pGADT7-CBL7) (from UniProt Q9SUA6 1-214)”, for which the binding result in test [1] was “no binding”.

Turning to “CBL10 luciferase-fragment fusion (pCAMBIA1300-nLUC, primers CBL10-nLUC-F/R) (from UniProt Q7FRS8 1-256)”, in test [3], the binding result is “binds”.

With “Calcineurin B-like protein 3 (pGADT7-CBL3) (from UniProt Q8LEM7 1-226)”, the binding result in test [1] was “no binding”.

In the case of “SOS3, also known as Calcineurin B-like 4 (pGADT7 fusion) (from UniProt O81223 1-222)”, the binding entry in test [1] is “no binding”.

Turning to “Calcineurin B-like protein 2 (pGADT7-CBL2) (from UniProt Q8LAS7 1-226)”, the binding entry in test [1] was “no binding”.

On to “Calcineurin B-like protein 6 (pGADT7-CBL6) (from UniProt Q9C5P6 1-226)”, for which the binding result in test [1] is given as “no binding”.
